Measurements from ChEMBL document CHEMBL5606458, “ASAP - ZIKV NS2B-NS3 protease fluorescence single point” (2024).
Hit rate of the full screen: of about 2,700 compounds, about 160 (5.9%) showed an effect of 50% or more. This is one part of the list.

Target: Nonstructural protein 3 (Zika virus) (UniProt A0A024AXB9)
[1] = PRVABC59, Concentration 15.0 uM, Number of replicates 1.0
[2] = PRVABC59, Concentration 10.0 uM, Number of replicates 1.0
[3] = PRVABC59, Concentration 50.0 uM, Number of replicates 1.0

Chain of UniProt A0A024AXB9 (A0A024AXB9 as listed by the source): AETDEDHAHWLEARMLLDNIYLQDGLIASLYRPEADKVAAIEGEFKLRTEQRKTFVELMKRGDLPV

O=C(Cc1cc2ccccc2[nH]1)NCc1cn2ccccc2n1 was tested, and the inhibition (PRVABC59, Concentration 49.5 uM, Number of replicates 2.0, Standard deviation 4.515339500308987 %) was -3.51%, the inhibition (PRVABC59, Concentration 99.01 uM, Number of replicates 2.0, Standard deviation 4.899993619400904 %) was -2.4% and the inhibition (PRVABC59, Concentration 198.0 uM, Number of replicates 2.0, Standard deviation 5.002439458314153 %) was -0.18%.
Work on CC(C)n1c(CNC(=O)c2cc(Cl)ccc2NS(=O)(=O)c2ccc(Oc3ccccc3Cl)cc2)nc2ccccc21 yielded an inhibition [1] of 37%.
For CC(C)(C)N(Cc1ccccc1)C(=O)c1cc(Cl)ccc1NS(=O)(=O)c1ccc(Oc2ccccc2Cl)cc1, the inhibition [1] was 22.1%.
CCc1noc([C@@H](C)n2cc(C3CCNCC3)c(C)n2)n1 showed an inhibition (PRVABC59, Concentration 49.5 uM, Number of replicates 2.0, Standard deviation 3.622774663384733 %) of -2.67%, an inhibition (PRVABC59, Concentration 99.01 uM, Number of replicates 2.0, Standard deviation 2.14425328677139 %) of -4.08% and an inhibition (PRVABC59, Concentration 198.0 uM, Number of replicates 2.0, Standard deviation 1.4487123594595053 %) of -2.88%.
Compound O=C(NCc1n[nH]c2c1CCCC2)[C@@]1(c2ccc(F)cc2)CCCNC1 has an inhibition (PRVABC59, Concentration 49.5 uM, Number of replicates 2.0, Standard deviation 2.5983721135581743 %) of -2.26%, an inhibition (PRVABC59, Concentration 99.01 uM, Number of replicates 2.0, Standard deviation 1.141586498924627 %) of -0.919% and an inhibition (PRVABC59, Concentration 198.0 uM, Number of replicates 2.0, Standard deviation 1.2082632400057025 %) of 2.23%.
With Cc1nccn1-c1ccccc1CNC(=O)c1cc(Cl)ccc1NS(=O)(=O)c1ccc(Oc2ccccc2Cl)cc1 the inhibition [1] was 16.8%.
With CC(=O)N[C@H](C(=O)Nc1cccc(C(N)=O)c1)c1ccc(OCc2ccccc2)cc1 the inhibition (PRVABC59, Concentration 49.5 uM, Number of replicates 2.0, Standard deviation 3.415915417887423 %) was 1.8%, the inhibition (PRVABC59, Concentration 99.01 uM, Number of replicates 2.0, Standard deviation 2.635484921409503 %) was 5.01% and the inhibition (PRVABC59, Concentration 198.0 uM, Number of replicates 2.0, Standard deviation 2.5333347847854073 %) was 9.43%.
Compound CN(Cc1cccc(F)c1F)C(=O)C1CCN(c2ccc(C=O)cc2)CC1 has an inhibition [2] of 27.6%.
Compound c1ccc2c([C@H]3CCN(Cc4ccn[nH]4)C3)c[nH]c2c1 has an inhibition (PRVABC59, Concentration 49.5 uM, Number of replicates 2.0, Standard deviation 2.8902363210243864 %) of 4.45%, an inhibition (PRVABC59, Concentration 99.01 uM, Number of replicates 2.0, Standard deviation 2.5964245709087583 %) of 8.62% and an inhibition (PRVABC59, Concentration 198.0 uM, Number of replicates 2.0, Standard deviation 2.7683580875493115 %) of 16.5%.
O=Cc1ccc(N2CCC(C(=O)N3CCC(c4ccncc4)CC3)CC2)cc1 gave an inhibition [3] of 29.4%.
For CN(Cc1cc([N+](=O)[O-])ccc1Cl)C(=O)c1cc(Cl)ccc1NS(=O)(=O)c1ccc(Oc2ccccc2Cl)cc1, the inhibition [1] was 15.4%.
With NC(=O)c1ccc(Cl)c(NC(=O)c2cc(Cl)ccc2NS(=O)(=O)c2ccc(Oc3ccccc3Cl)cc2)c1 the inhibition [1] was 18.6%.
With CC(C)(CO)NC(=O)c1cc(Cl)cc(NC(=O)Cc2cccnc2)c1 the inhibition (PRVABC59, Concentration 49.5 uM, Number of replicates 2.0, Standard deviation 2.8295711588021697 %) was -0.77%, the inhibition (PRVABC59, Concentration 99.01 uM, Number of replicates 2.0, Standard deviation 5.3486046749508604 %) was 1.67% and the inhibition (PRVABC59, Concentration 198.0 uM, Number of replicates 2.0, Standard deviation 2.253441862803108 %) was 0.409%.
For Cc1cnccc1NC(=O)c1cccc(-c2nccs2)c1, the inhibition (PRVABC59, Concentration 49.5 uM, Number of replicates 2.0, Standard deviation 3.1083112380371505 %) was -3.05%, the inhibition (PRVABC59, Concentration 99.01 uM, Number of replicates 2.0, Standard deviation 1.3089777285289714 %) was 0.097% and the inhibition (PRVABC59, Concentration 198.0 uM, Number of replicates 2.0, Standard deviation 1.9614235243118916 %) was 0.998%.
With CCc1cc(Br)ccc1NC(=O)C1CCN(c2ccc(C=O)cc2)CC1 the inhibition [3] was 29.2%.
Work on O=C(NCCCc1cccc(C(F)(F)F)c1)c1cc(Cl)ccc1NS(=O)(=O)c1ccc(Oc2ccccc2Cl)cc1 yielded an inhibition [1] of 11.8%.
With Cc1ccc(NC(=O)c2cc(Cl)ccc2NS(=O)(=O)c2ccc(Oc3ccccc3Cl)cc2)c(Br)c1 the inhibition [1] was 34.4%.
With CC(C)Nc1nc2ccc(C(=O)NCc3cnn(C)c3)cc2[nH]1 the inhibition (PRVABC59, Concentration 49.5 uM, Number of replicates 2.0, Standard deviation 1.8680242324769916 %) was -0.717%, the inhibition (PRVABC59, Concentration 99.01 uM, Number of replicates 2.0, Standard deviation 3.118010703019205 %) was -0.01% and the inhibition (PRVABC59, Concentration 198.0 uM, Number of replicates 2.0, Standard deviation 2.531768976679667 %) was 1.86%.
With CNC(=O)C1(CNS(=O)(=O)c2ccc(Oc3ccccc3Cl)cc2)CCCC1 the inhibition (PRVABC59, Concentration 49.5 uM, Number of replicates 2.0, Standard deviation 2.282728190546782 %) was 0.418%, the inhibition (PRVABC59, Concentration 99.01 uM, Number of replicates 2.0, Standard deviation 2.1749325678583493 %) was 2.65% and the inhibition (PRVABC59, Concentration 198.0 uM, Number of replicates 2.0, Standard deviation 2.475069295530007 %) was 4.84%.
O=C(NCc1ccc(F)c(Cl)c1)c1cc(Cl)ccc1NS(=O)(=O)c1ccc(Oc2ccccc2Cl)cc1 showed an inhibition [1] of 34.8%.
COc1ccc([C@H](C)N(C)C(=O)c2cc(Cl)ccc2NS(=O)(=O)c2ccc(Oc3ccccc3Cl)cc2)cc1 gave an inhibition [1] of 23.2%.
With O=Cc1ccc(N2CCC(C(=O)Nc3nnc(C(F)(F)F)s3)CC2)cc1 the inhibition [3] was 26.5%.
Compound O=Cc1ccc(N2CCC(C(=O)NCCNC(=O)c3ccc(F)cc3)CC2)cc1 has an inhibition [3] of 27%.
O=Cc1ccc(N2CCC(C(=O)N[C@H](CO)[C@H](O)c3ccc([N+](=O)[O-])cc3)CC2)cc1 was tested, and the inhibition [3] was 25.6%.
In the case of O=C(c1cc(Cl)ccc1NS(=O)(=O)c1ccc(Oc2ccccc2Cl)cc1)N1CCC(Oc2ccccc2)CC1, the inhibition [1] is reported as 7.01%.
Compound COc1cc(NC(=O)C2CCN(c3ccc(C=O)cc3)CC2)ccc1Br has an inhibition [3] of 26.1%.
Cc1nc(Cl)c(NC(=O)c2cc(Cl)ccc2NS(=O)(=O)c2ccc(Oc3ccccc3Cl)cc2)c(Cl)n1 was tested, and the inhibition [1] was 19.7%.
Work on Cc1cc(CO)c2cccc(NC(=O)Cc3csc(Cc4ccccc4)n3)c2n1 yielded an inhibition (PRVABC59, Concentration 49.95 uM, Number of replicates 2.0, Standard deviation 1.5807158675271402 %) of 17.9% and an inhibition (PRVABC59, Concentration 99.9 uM, Number of replicates 2.0, Standard deviation 3.6130638767054974 %) of 31.5%.
For O=Cc1ccc(N2CCC(C(=O)NCC3(N4CCOCC4)CCCCC3)CC2)cc1, the inhibition [3] was 25.4%.
O=C(Nc1ccccc1Cc1ccccc1)c1cc(Cl)ccc1NS(=O)(=O)c1ccc(Oc2ccccc2Cl)cc1 gave an inhibition [1] of 55.2%.
Work on O=C(Nc1ccc(F)nc1Br)c1cc(Cl)ccc1NS(=O)(=O)c1ccc(Oc2ccccc2Cl)cc1 yielded an inhibition [1] of 22.8%.
For COc1ccccc1N1CCN(CCCNC(=O)C2CCN(c3ccc(C=O)cc3)CC2)CC1, the inhibition [3] was 26.1%.
C[C@H]1CN(Cc2ccccc2)CCN1C(=O)c1cc(Cl)ccc1NS(=O)(=O)c1ccc(Oc2ccccc2Cl)cc1 showed an inhibition [1] of 18.8%.
Compound COc1ccc(NC(=O)C2CCN(c3ccc(C=O)cc3)CC2)c([N+](=O)[O-])c1 has an inhibition [3] of 21.7%.
Work on O=Cc1ccc(N2CCC(C(=O)NCc3ccsc3Br)CC2)cc1 yielded an inhibition [2] of 19.3%.
Cc1c(C(=O)NCC(F)(F)c2n[nH]c3c2COCC3)ccc(O)c1NC(=O)c1ccncc1F was tested, and the inhibition (PRVABC59, Concentration 49.5 uM, Number of replicates 2.0, Standard deviation 2.652978286985313 %) was 2.12%, the inhibition (PRVABC59, Concentration 99.01 uM, Number of replicates 2.0, Standard deviation 1.707336801571449 %) was 3.79% and the inhibition (PRVABC59, Concentration 198.0 uM, Number of replicates 2.0, Standard deviation 1.3187168958423232 %) was 5.58%.
Compound N#CCCN(Cc1cccnc1)C(=O)c1cc(Cl)ccc1NS(=O)(=O)c1ccc(Oc2ccccc2Cl)cc1 has an inhibition [1] of 15.5%.
For Cc1cc(N)c2cccc(Cl)c2n1, the inhibition (PRVABC59, Concentration 49.95 uM, Number of replicates 2.0, Standard deviation 13.811247628155078 %) was -6.63% and the inhibition (PRVABC59, Concentration 99.9 uM, Number of replicates 2.0, Standard deviation 13.70369241109055 %) was -1.25%.
Work on Cc1cccc(N2CCN(C(=O)C3CCN(c4ccc(C=O)cc4)CC3)CC2)n1 yielded an inhibition [3] of 28.4%.
Work on CC1(C)C[C@]1(CNC(=O)c1cc(Cl)ccc1NS(=O)(=O)c1ccc(Oc2ccccc2Cl)cc1)c1ccccc1 yielded an inhibition [1] of 34.1%.
Cc1cc(CO)c2cccc(Cc3ccccc3NC(=O)c3cc(C(=O)O)[nH]n3)c2n1 gave an inhibition (PRVABC59, Concentration 49.95 uM, Number of replicates 2.0, Standard deviation 2.0307752573793247 %) of 3.65% and an inhibition (PRVABC59, Concentration 99.9 uM, Number of replicates 2.0, Standard deviation 1.43019497297885 %) of 9.98%.
C[C@H](NC(=O)C1CCN(c2ccc(C=O)cc2)CC1)c1ccc2c(c1)OCCCO2 was tested, and the inhibition [2] was 24.8%.
Work on N#Cc1c(Cl)cccc1NC(=O)C1CCN(c2ccc(C=O)cc2)CC1 yielded an inhibition [3] of 23.2%.
With CN(Cc1ccccc1Br)C(=O)c1cc(Cl)ccc1NS(=O)(=O)c1ccc(Oc2ccccc2Cl)cc1 the inhibition [1] was 32.5%.
